Test results as given in ChEMBL document CHEMBL4888484, “Replenishing the malaria drug discovery pipeline: Screening and hit evaluation of the MMV Hit Generation Library 1 (HGL1) against asexual blood stage Plasmodium falciparum ,using a nano luciferase reporter read-out” (2022).
Where “and” joins values, the source holds several entries; their conditions need not be identical. Identical values can stand only once. About 540 (0.36%) of roughly 150,000 compounds showed an effect of 50% or more. Some of the results follow.

System: Plasmodium falciparum
Assay: Primary screen in NF54 nanoGlo assay, in single point, at 2uM, 72h; a lower Z score goes with more inhibition
Assay type: functional, Erythrocyte
Conditions: timepoint 72 hour

O=C(NCCN1Cc2ccccc2O[C@H](c2ccccc2)C1)C1=CCCCC1
% Inhibition: -12%
Z score: 2.11

O=C1C[C@]2(CCN(c3nccc(C(F)(F)F)n3)C2)C(=O)N1
% Inhibition: 10%
Z score: -1.92

CC(C)(C)NC(=O)CN1CC(c2ccccc2)(c2ccccc2)CCC1=O
% Inhibition: 8%
Z score: -1.02

CN1N=C(C(=O)Nc2nc3c(Cl)c(Cl)ccc3s2)CCC1=O
% Inhibition: -6%
Z score: 0.88

Cc1cc(C)c(CNS(=O)(=O)C2CCOC(C)C2)c(C)c1 (stereo not given)
% Inhibition: -9%
Z score: 1.56

COC[C@@H]1CCCN1Cc1ccc2c3c(cccc13)C(=O)OC2
% Inhibition: -8%
Z score: 1.54

COc1ccc(NC(=O)N2CCC(O)(c3csc(CN4CCN(C)CC4)n3)CC2)cc1
% Inhibition: 27%
Z score: -3

O=C(N[C@H]1CCN(Cc2noc(-c3ccccc3)n2)C1)c1ccc(F)c(F)c1
% Inhibition: -10%
Z score: 1.95

COc1cccc2c1CN(C(=O)NC1CCC(=O)NC1C1CCCO1)C2 (stereo not given)
% Inhibition: -12%
Z score: 2.33

CCCn1nnnc1CNc1cc(Cl)ccc1C(N)=O
% Inhibition: 8%
Z score: -0.64

COC(=O)N1CCCC[C@H]1c1nc(C)nn1CCc1ccccc1
% Inhibition: -8%
Z score: 1.24

CC(C)Nc1ccc(F)cc1NC(=O)C[C@H]1CCOC1
% Inhibition: -7%
Z score: 1

Cc1onc(-c2ccccc2)c1C(=O)N1CCC[C@H]1C(=O)O
% Inhibition: -5%
Z score: 0.8

Cc1cc(C)cc(NC(=O)[C@H]2CCCN(c3ncnc4oc(C)c(C)c34)C2)c1
% Inhibition: 5%
Z score: -0.57

Cc1cccc(-c2nnc(C)c(NCCCN3CCOCC3)n2)c1
% Inhibition: 1%
Z score: -0.26

CCC(C)CN1C(=O)C(Cc2ccccc2)NC12CCN(C(=O)c1ccc(OC)cc1)CC2 (stereo not given)
% Inhibition: -15%
Z score: 1.48

CC(C)Cc1cc(CNS(=O)(=O)[C@H]2CCS(=O)(=O)C2)on1
% Inhibition: -5%
Z score: 0.49

COC(=O)CCC(=O)N1CCC(C)CC1
% Inhibition: -3%
Z score: 0.49

O=C1CC[C@@]2(CCCO2)CCN1Cc1ccncc1
% Inhibition: -14%
Z score: 2.79

NC(=O)c1cccnc1Oc1ccc(Cl)c(CN2CCCC2)c1Cl
% Inhibition: 11%
Z score: -1.56

Cc1ccc(C2=C[C@@H](c3ccc(C)cc3)n3nnnc3N2CC(=O)Nc2ncc(C)s2)cc1
% Inhibition: -3%
Z score: 0.27

COCC(COC)NC(=O)N1CC(C)C(C)(CO)C1 (stereo not given)
% Inhibition: 1%
Z score: -0.17

CC(=O)Nc1ccc(C)cc1S(=O)(=O)N1CCN(Cc2nc3ccc(Cl)cc3o2)CC1
% Inhibition: -21%
Z score: 1.88

O=C1[C@H]2Cc3ccccc3CN2C(=O)CN1Cc1ccc(F)cc1
% Inhibition: -7%
Z score: 0.87

O=C1NCCN(C(=O)Cn2ccccc2=O)[C@H]1Cc1ccccc1
% Inhibition: 2%
Z score: -0.36

Cc1nn(CCO[C@@H]2CCCCO2)c(C)c1Br
% Inhibition: -13%
Z score: 1.75

CC1=C(C(=O)Nc2ccccc2)C2(CCCC2)[C@@H](C(N)=O)C(=O)N1
% Inhibition: 10%
Z score: -1.28

O=C(CC[C@@H]1NC(=O)N(Cc2ccc3c(c2)OCO3)C1=O)N1CCc2ccccc2C1
% Inhibition: -4%
Z score: 0.57

OC[C@H]1CN(c2nc3ccc(Cl)cc3s2)C[C@H]1CN1CCCCC1
% Inhibition: -1%
Z score: 0.23

N#Cc1cccc(C(=O)N2CCC3(CC2)C[C@H](CO)N(C(=O)c2ccccc2)C3)c1
% Inhibition: 1%
Z score: -0.08

COCCC(=O)Nc1cc(C(=O)N[C@H]2CCS(=O)(=O)C2)cc2nc(-c3ccccc3)n(C)c12
% Inhibition: 7%
Z score: -0.9

CC1(C)C(NC(=O)C2CCCC2)C2CCCN(c3ncc(Cl)cn3)C21 (stereo not given)
% Inhibition: -1%
Z score: 0.2

COC(=O)c1ccc(C[N+]2(C[C@H]3COC4(CCCCC4)O3)CCCC2)cc1
% Inhibition: -5%
Z score (2 µM): 0.44 and 0.65

Cc1ccnc(-n2nccc2NC(=O)N(C)CC[C@H]2CCCCN2C)c1
% Inhibition: 7%
Z score: -0.86

CCCC[C@@]1(O)COC2(CN(C(=O)c3cccnc3C)C2)C1
% Inhibition: 0%
Z score: 0.04

CC1(C(=O)NC[C@H]2CCCCN(C(=O)C3(C)CCC3)C2)CCC1
% Inhibition: -18%
Z score: 3.46

O=C(NCCC1=CCCCC1)c1ccc(NC(=O)C2CCC2)cc1
% Inhibition: -10%
Z score: 1.18

O=C(NS(=O)(=O)c1ccsc1)C1CCC1
% Inhibition: -4%
Z score: 0.77

CC[C@H](C)S(=O)(=O)NC(=O)c1cnn(C)c1
% Inhibition: -4%
Z score: 0.33

COC(C)(C)C[C@H](C)NC(=O)NCc1cc(C)on1
% Inhibition: 0%
Z score: -0.06

CN(C(=O)C1CCC(OC(F)F)CC1)c1ccc(-c2ccccc2)nn1 (stereo not given)
% Inhibition: -9%
Z score: 1

Cc1nn(C)c(C)c1CN(CCO)[C@@H](C)C(=O)N1CCCC1
% Inhibition: -8%
Z score: 1.39

O=C(c1ccncc1)N1CC[C@H]2[C@@H](CCCN2CC2CC=CCC2)C1 (stereo not given in full)
% Inhibition: -11%
Z score: 1.39

O=C1NCCC[C@@H]1Nc1ncccc1F
% Inhibition: 1%
Z score: -0.28

COc1ccc(CN2CCn3nc(C(=O)N4CCc5ccccc5C4)cc3C2=O)cc1
% Inhibition: -8%
Z score: 1.66

CC(C)(C)C1CCC(O)(CNC(=O)NC2CCC(O)CC2)CC1 (stereo not given)
% Inhibition: 0%
Z score: -0.1

Cn1c(=O)n(CC(=O)NCc2ccc(F)cc2)c2cncnc21
% Inhibition: -29%
Z score: 2.96

O=C(c1cccnc1)N1CC[C@H](Oc2ncc(Cl)cn2)C1
% Inhibition: -3%
Z score: 0.63

O=C(c1ccc2ncccc2c1)N1CC2CC1CS2(=O)=O (stereo not given)
% Inhibition: -1%
Z score: 0.1

Cc1ccc(Cn2ncc3c2NC(=O)C[C@]32C(=O)Nc3ccccc32)cc1
% Inhibition: 3%
Z score: -0.43

CN1CCC(N2CCC(c3ncnn3-c3ccc(F)c(F)c3)CC2)CC1
% Inhibition: -7%
Z score: 0.9

COc1ccc2c(n1)N(C)CCN2C(=O)c1ccnnc1C
% Inhibition: -11%
Z score: 1.18

Cc1cc(C)c(C)c(S(=O)(=O)N(C(=O)Cc2ccccc2)c2ccc3oc(=O)sc3c2)c1C
% Inhibition: -30%
Z score: 3.69

C[C@H](O)CCN(C)c1ccc(C#N)cc1F
% Inhibition: 3%
Z score: -0.36

COc1ccc2c(c1)C(N1CCCN(C(=O)NCc3ccccc3)CC1)=Nc1ccccc1O2
% Inhibition: -2%
Z score: 0.29

O=C(C[C@H]1COCCN1Cc1ccc2c(c1)OCCO2)Nc1ccccc1
% Inhibition: -4%
Z score: 0.69

FC(F)c1cscc1-c1cn2c(n1)CCC2
% Inhibition: -7%
Z score: 0.7

Cc1cc(S(=O)(=O)N2C[C@@H](F)C[C@H]2C(=O)N2CCc3ccccc3C2)ccc1F
% Inhibition: -5%
Z score: 0.59

CCc1nc2ccc(-c3noc(-c4ccccn4)n3)cc2n1CC
% Inhibition: -13%
Z score: 2.16

CCn1nccc1CN1CCN(c2ccnc(C)n2)CC1
% Inhibition: -7%
Z score: 0.69

O=C(c1ccc(Cl)c(Cl)c1)N1CC[C@H](Oc2cnsn2)C1
% Inhibition: -8%
Z score: 1.42

Cn1nc(C2CCCCC2)cc1NCc1ccc(C#N)cc1
% Inhibition: -7%
Z score: 0.94

Cc1c(Cl)cc(C(=O)NCCc2cnccn2)cc1Cl
% Inhibition: 2%
Z score: -0.25

N#Cc1ccccc1-c1ccccc1C(=O)N1C2CCC1CC(O)C2 (stereo not given)
% Inhibition: 4%
Z score: -0.46

CC(=O)N1CCCN(C(=O)c2cc3ccccc3c(=O)[nH]2)CC1
% Inhibition: 0%
Z score: -0.05

Cc1cc(C(=O)NCC[C@H]2CCCN2C(=O)OC(C)(C)C)oc1C
% Inhibition: -6%
Z score: 0.92

CCN(Cc1noc(C2CCC2)n1)C(=O)NC[C@H]1CC(=O)N(C(C)(C)C)C1
% Inhibition: 1%
Z score: -0.21

O=C(Nc1ccc(F)cc1F)c1ccc(S(=O)(=O)N2CCCCCC2)cc1
% Inhibition: -15%
Z score: 2.5

CC(C)(CO)NC(=O)CCC(C)(C)c1ccccc1
% Inhibition: 0%
Z score: -0.05

O=C(O)C(=O)N1CCC[C@@H]1Cc1c(F)cccc1Cl
% Inhibition: -8%
Z score: 1.64

Cc1c(Cl)cccc1NC(=O)Cn1nc(N2CCCCCC2)c2ccccc2c1=O
% Inhibition: -5%
Z score: 0.75

Cc1cc(NC(=O)CN2CCC(N3c4ccccc4N(C)S3(=O)=O)CC2)no1
% Inhibition: 4%
Z score: -0.46

C[C@@H](CC#N)N(C)Cc1cc2ccncc2s1
% Inhibition: 3%
Z score: -0.55

CC1(CNC(=O)c2cccc(-c3nccs3)c2)COC1
% Inhibition: -8%
Z score: 0.91

CCOc1ncccc1CNC(=O)C[C@H]1C(=O)N(C)C(=O)N1C
% Inhibition: -18%
Z score: 3.33

CN(CC(=O)NC(C)(C)C)C(=O)c1ccc(Br)cc1O
% Inhibition: -13%
Z score: 2

O=C(O)c1cc(-c2ccc(-c3ccccc3)cc2)on1
% Inhibition: -7%
Z score: 1.23

CC(NC(CC1CCOC1)c1ccccc1)c1nc2ccccc2o1 (stereo not given)
% Inhibition: 12%
Z score: -1.11

O=C(Nc1ccc2nc3n(c(=O)c2c1)CCCC3)c1ccc(F)cc1
% Inhibition: -7%
Z score: 0.92

COCCN1CC[C@H](NC(=O)c2sccc2S(=O)(=O)N(C)C)C1
% Inhibition: -10%
Z score: 1.3

Cc1cc(O)nc(C(=O)N2CC(O)(C3CC3)C2)c1
% Inhibition: 0%
Z score: 0.08

c1csc(Cc2n[nH]c(CN3CCCC3)n2)c1
% Inhibition: 9%
Z score: -1.12

C[C@@]1(C(=O)NCCCc2ccccc2)CCCCC(=O)N1
% Inhibition: 3%
Z score: -0.3

CC(=O)NCCc1nc(C2(c3ccccc3)CC2)nn1C1Cc2ccccc2C1
% Inhibition: -9%
Z score: 1.14

O=C(NCCc1ccc(F)cc1)[C@@H]1CCCCO1
% Inhibition: -3%
Z score: 0.51
